# Data as given in publication PMC4336329 (PLoS ONE, 2015).
# In all, about 310,000 compounds went through this assay and about 2,200 (0.71%) showed an effect of 50% or more. Effects have a minus sign here. The list shows a part of the results.
# Target: human ether-à-go-go-related gene (hERG) potassium channel (human, UniProt Q12809)
# Assay: primary screen, population patch clamp on CHO cells stably expressing hERG
# Chain of human ether-à-go-go-related gene (hERG) potassium channel (Q12809 whole entry, looked up): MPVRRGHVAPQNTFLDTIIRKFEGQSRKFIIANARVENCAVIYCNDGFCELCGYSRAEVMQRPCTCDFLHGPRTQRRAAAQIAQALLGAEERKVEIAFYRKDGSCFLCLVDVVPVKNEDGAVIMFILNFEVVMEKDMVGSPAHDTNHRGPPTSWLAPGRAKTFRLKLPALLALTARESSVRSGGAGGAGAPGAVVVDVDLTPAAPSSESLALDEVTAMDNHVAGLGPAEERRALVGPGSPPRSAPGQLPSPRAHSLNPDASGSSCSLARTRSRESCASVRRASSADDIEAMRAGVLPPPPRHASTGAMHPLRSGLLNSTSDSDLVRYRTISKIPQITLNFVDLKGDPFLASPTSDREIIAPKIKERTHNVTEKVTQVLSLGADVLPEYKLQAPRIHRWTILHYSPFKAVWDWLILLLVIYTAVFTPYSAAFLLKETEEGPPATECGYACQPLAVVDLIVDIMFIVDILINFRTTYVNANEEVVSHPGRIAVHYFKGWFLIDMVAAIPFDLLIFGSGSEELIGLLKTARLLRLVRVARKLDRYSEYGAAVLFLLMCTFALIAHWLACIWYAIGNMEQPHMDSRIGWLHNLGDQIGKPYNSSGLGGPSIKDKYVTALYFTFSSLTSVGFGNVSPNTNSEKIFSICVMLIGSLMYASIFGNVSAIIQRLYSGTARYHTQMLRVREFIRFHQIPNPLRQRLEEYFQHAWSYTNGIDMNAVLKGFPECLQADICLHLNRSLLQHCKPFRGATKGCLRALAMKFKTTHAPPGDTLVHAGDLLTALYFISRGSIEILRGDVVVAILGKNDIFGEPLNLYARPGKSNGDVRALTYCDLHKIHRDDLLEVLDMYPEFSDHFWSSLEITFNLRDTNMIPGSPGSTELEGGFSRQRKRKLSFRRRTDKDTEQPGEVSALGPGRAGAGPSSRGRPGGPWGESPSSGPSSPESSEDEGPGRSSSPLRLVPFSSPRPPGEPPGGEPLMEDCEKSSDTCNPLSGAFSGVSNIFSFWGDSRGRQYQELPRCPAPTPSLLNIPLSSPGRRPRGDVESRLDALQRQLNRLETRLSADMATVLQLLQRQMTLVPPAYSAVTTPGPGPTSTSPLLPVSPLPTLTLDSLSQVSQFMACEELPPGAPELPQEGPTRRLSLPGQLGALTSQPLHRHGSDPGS
row,SMILES,"hERG current change (%, negative = inhibition) at 1uM"
1,COc1ccc(-c2csc(N3CCOCC3)n2)cc1OC,-0.311%
2,O=C(c1ccc2c(c1)N(Cc1ccc(F)cc1)CCS2)N1CCC2(CC1)OCCO2,3.78%
3,COc1ccc(N2CCN(Cc3cc(=O)oc4cc(C)c(Cl)cc34)CC2)cc1,5.96%
4,O=C(COC(=O)/C=C/c1ccccc1)NC1CC1,-7.28%
5,Cc1cccc(-c2noc(-c3ccc(F)cc3)n2)c1,5.22%
6,COc1ccc(C(=O)Nc2ccc(N3CCN(C(C)=O)CC3)cc2)cc1[N+](=O)[O-],13.4%
7,Cc1ccc(SCC(=O)OCC(=O)NCCC2=CCCCC2)cc1,9.01%
8,COc1cc(/C=C2\C(=N)N3N=C(N4CCOCC4)SC3=NC2=O)ccc1OC(=O)c1ccccc1,16.8%
9,Cc1ccc(-n2c(SCC(=O)N3CCCCC3)nc(O)cc2=O)cc1,9.05%
10,CC(C)(C)OC(=O)NCCCCCc1nnc(SCC(=O)Nc2cccc(Cl)c2)o1,-1.82%
11,COc1cc(/C=C/C(=O)OCC(=O)c2c(N)n(C)c(=O)n(C)c2=O)ccc1OC(F)F,-2.51%
12,O=C(Cc1nnc(NC(=O)Nc2ccc(Cl)cc2)s1)NCc1ccccc1,6.41%
13,CCCC(=O)N=C1SC2CS(=O)(=O)CC2N1c1ccc(C(C)=O)cc1 (centres unmarked),-6.95%
14,CC(C)C(=O)Nc1cccc(C(=O)Nc2ccc(S(=O)(=O)Nc3nccs3)cc2)c1,10.4%
15,O=C(Nc1ccncc1)c1cc2ccccc2o1,-4.74%
16,Cc1cc(C)nc(Sc2ccc([N+](=O)[O-])cc2[N+](=O)[O-])n1,18%
17,O=C(Nc1ccc(N2CCN(C(=O)c3ccco3)CC2)c(Cl)c1)c1c(F)c(F)c(F)c(F)c1F,0.802%
18,C/C(CC(c1ccccc1)c1c(O)c2ccccc2oc1=O)=N\Nc1ccc([N+](=O)[O-])cc1[N+](=O)[O-] (centres unmarked),10.7%
19,O=C(CN1CCN(Cc2ccc(Cl)cc2)C1=O)NCCCN1CCOCC1,4.56%

row,SMILES,"hERG current change (%, negative = inhibition) at 1uM"
1,COc1ccc(CN2[C@@H](CC(=O)O)c3cc(C(F)(F)F)ccc3S2(=O)=O)cc1,14.2%
2,O=C(COc1ccc(Br)cc1)Nc1nnc(-c2cccnc2)s1,9.39%
3,O=C(/C=C/c1ccccc1)c1c(O)n(CCc2ccccc2)c(=O)[nH]c1=O,4.37%
4,CCOC(=O)NC1(NC(C)C)Oc2ccccc2O1,8.78%
5,COCCNC(=O)NC(=O)COC(=O)C1(c2ccc(Cl)cc2)CC1,6.06%
6,CCOc1cc(C(C(=O)NCC2CCCO2)N(C(=O)Cn2nnc3ccccc32)c2ccccc2OC)ccc1O (centres unmarked),7.67%
7,Cc1cccn2c(CN[C@@H]3CCCC[C@H]3c3ccccc3)c(C(=O)N3CCOCC3)nc12,4.31%
8,CCOC(=O)C1CCCN(Cc2c(C(=O)N3CCOCC3)nc3ccccn23)C1 (centres unmarked),6.59%
9,Cc1cc(C)n2nc(CNS(=O)(=O)c3ccc([N+](=O)[O-])cc3)nc2n1,10.5%
10,O=C(COC(=O)c1ccc2[nH]c3c(c2c1)CCCC3)Nc1ccc(Cl)cc1Cl,3.65%
11,O=C(NCc1ccc2c(c1)OCO2)c1ccc(=O)[nH]c1,10.1%
12,CC1CN=C(NCCc2ccccc2)S1 (centres unmarked),13%
13,CC(C)CN1C(=O)/C(=C/c2cccs2)NC1=S,19.6%
14,CCC(=O)O[C@@H]1[C@@H](OC(C)=O)[C@@]2(O)C(C[C@H](O)C2(C)C)[C@](C)(O)[C@H]2CC[C@@H]3[C@@H](O)[C@]12C[C@@]3(C)O (some centres unmarked),13.5%
15,O=C(NC(=S)Nc1ccccc1N1CCOCC1)c1ccco1,5.79%
16,COc1cccc(OC)c1OCCOc1ccccc1OC(C)C,0.584%
17,CCOc1ccccc1CN1CCN(Cc2ccc(C)o2)C(CCO)C1 (centres unmarked),7.58%
18,NC(=O)CSc1nnc(-c2ccncc2)o1,12.4%
19,CN1CCN(c2ccc(NC(=O)c3ccc([N+](=O)[O-])o3)cc2Cl)CC1,-13.7%

row,SMILES,"hERG current change (%, negative = inhibition) at 1uM"
1,COc1ccc(NC(=O)CSc2nc3ccccc3c(=O)n2CCCO)cn1,-26.1%
2,CCn1cc(C(=O)O)c(=O)c2cc(F)c(N3CCNCC3)cc21,11.5%
3,Cc1nc2c(cnn2-c2ccccc2Cl)c(=O)n1-c1ccc(N2CCC(C)CC2)cc1,11.2%
4,Cc1ccc(C)c(Cn2c(C(C)O)nc3ccccc32)c1 (centres unmarked),11.2%
5,O=C(Cc1ccc([N+](=O)[O-])cc1)N1N=C2CCCCC2C1(O)C(F)(F)F (centres unmarked),5.78%
6,CCCCCCC(=O)c1c(C)[nH]c(C(=O)OCC)c1C,11.8%
7,C=CCOc1nc2c(c(=O)n(C)c(=O)n2C)n1Cc1ccccc1,5.46%
8,COCCNC(=O)CSc1ncnc2sccc12,23.4%
9,CC(=O)Oc1ccccc1-c1nc(C)nc(N(C)C(C)=O)n1,12.4%
10,Cc1ccc(NC(=O)Nc2ccc(F)cc2)nc1,4.71%
11,COc1ccc(CN(C)C(=O)c2ccc(OCC(=O)N3CCOCC3)c(OC)c2)cc1,5.54%
12,CCOc1ccccc1C(=O)NCC(=O)NCC1CCCCC1,13.4%
13,Cc1cccc(/C(N)=N/OC(=O)Cc2ccccc2)c1,25.1%
14,CCOc1cc(NC(=S)NCC(C)C)c(OCC)cc1NC(=O)c1ccco1,7.29%
15,COc1ccc(CN2C(=O)CCC2(C)C(=O)NC2CCCCCC2)cc1 (centres unmarked),-5.45%
16,Cc1cc(C)c2[nH]c(C)c(CN3CCCCCC3)c(=O)c2c1,-3.09%
17,CN(C)C1=NP(N(C)C)(N(C)C)=NC(c2ccccc2)=N1,-6.9%
18,COc1cccc(C(=O)NCCS(=O)(=O)N2CCCCC2)c1,7.65%
